# The list shows a part of the results.
# B1: Cohesin-hDECTIN-1 (Homo sapiens) (protein)
# chain: LDITSHHHHHHDDLDAVRIKVDTVNAKPGDTVRIPVRFSGIPSKGIANCDFVYSYDPNVLEIIEIEPGDIIVDPNPDKSFDTAVYPDRKIIVFLFAEDSGTGAYAITKDGVFATIVAKVKEGAPNGLSVIKFVEVGGFANNDLVEQKTQFFDGGVNVGDTTEPATPTTPVTTPTTTDDLDAASSSPCPPNWIIYEKSCYLFSMSLNSWDGSKRQCWQLGSNLLKIDSSNELGFIVKQVSSQPDNSFWIGLSRPQTEVPWLWEDGSTFSSNLFQIRTTATQENPSPNCVWIHVSVIYDQLCSVPSYSICEKKFM
# Columns and labels:
# Assay in all cases: glycan array binding signal (z-score within array); higher = stronger binding
# Settings in all cases: glycan notation: IUPAC condensed, linker removed
# [1] = target: Gal(b1-4)GlcNAc(b1-3)Gal(b1-4)GlcNAc(b1-6)[Gal(b1-3)]GalNAc
# How it was run: (§1)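 Glycan array binding is given as a within-array Z-score, which can be read as non-binding when negative. The arrays, 3228 of them, came from the Consortium for Functional Glycomics database and were retained only where the protein sequence was available. Z-scores were averaged across arrays of the same protein sequence at different concentrations or buffers and across linkers.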
# [2] = target: Gal(b1-4)GlcNAc(b1-3)Gal(b1-4)[Fuc(a1-3)]GlcNAc(b1-3)Gal(b1-4)[Fuc(a1-3)]GlcNAc
# How it was run: as §1
# [3] = target: Gal(b1-4)GlcNAc(b1-3)GalNAc
# How it was run: as §1
# [4] = target: Gal(b1-4)GlcNAc(b1-3)[Fuc(a1-3)GlcNAc(b1-6)]Gal(b1-4)Glc
# How it was run: as §1
# [5] = target: Gal(b1-4)GlcNAc(b1-3)[Gal(b1-4)GlcNAc(b1-6)]Gal(b1-4)GlcNAc
# How it was run: as §1
# [6] = target: Gal(b1-4)GlcNAc(b1-3)[GlcNAc(b1-6)]Gal(b1-4)GlcNAc
# How it was run: as §1
# [7] = target: Gal(b1-4)GlcNAc(b1-6)Gal(b1-4)GlcNAc
# How it was run: as §1
# [8] = target: Gal(b1-4)GlcNAc(b1-6)GalNAc
# How it was run: as §1
# [9] = target: Gal(b1-4)GlcNAc(b1-6)[Gal(b1-3)]GalNAc
# How it was run: as §1
# [10] = target: Gal(b1-4)GlcNAc(b1-6)[Gal(b1-4)GlcNAc(b1-3)]GalNAc
# How it was run: as §1
# [11] = target: Gal(b1-4)GlcNAc6P
# How it was run: as §1
# [12] = target: Gal(b1-6)Gal
# How it was run: as §1
# [13] = target: Gal3S(b1-3)GalNAc
# How it was run: as §1
# [14] = target: Gal3S(b1-3)GlcNAc
# How it was run: as §1
# [15] = target: Gal3S(b1-3)[Fuc(a1-4)]GlcNAc
# How it was run: as §1
# [16] = target: Gal3S(b1-4)Glc
# How it was run: as §1
# [17] = target: Gal3S(b1-4)Glc6S
# How it was run: as §1
# [18] = target: Gal3S(b1-4)GlcNAc
# How it was run: as §1
# [19] = target: Gal3S(b1-4)[Fuc(a1-3)]Glc6S
# How it was run: as §1
# [20] = target: Gal3S(b1-4)[Fuc(a1-3)]GlcNAc
# How it was run: as §1
# [21] = target: Gal3S(b1-4)[Fuc(a1-3)]GlcNAc6S
# How it was run: as §1
# [22] = target: Gal3S4S(b1-4)GlcNAc
# How it was run: as §1
# [23] = target: Gal3S6S(b1-4)GlcNAc
# How it was run: as §1
# [24] = target: Gal3S6S(b1-4)GlcNAc6S
# How it was run: as §1
# [25] = target: Gal4S(b1-4)GlcNAc
# How it was run: as §1
# [26] = target: Gal4S6S(b1-4)GlcNAc
# How it was run: as §1
# [27] = target: Gal6P(b1-4)GlcNAc
# How it was run: as §1
# [28] = target: Gal6S(b1-3)GlcNAc
# How it was run: as §1
# [29] = target: Gal6S(b1-3)GlcNAc6S
# How it was run: as §1
# [30] = target: Gal6S(b1-4)Glc
# How it was run: as §1
# [31] = target: Gal6S(b1-4)Glc6S
# How it was run: as §1
# [32] = target: Gal6S(b1-4)GlcNAc
# How it was run: as §1
# [33] = target: Gal6S(b1-4)GlcNAc6S
# How it was run: as §1
# [34] = target: GalNAc(a1-3)Gal
# How it was run: as §1
# [35] = target: GalNAc(a1-3)GalNAc
# How it was run: as §1
# [36] = target: GalNAc(a1-3)GalNAc(b1-3)Gal(a1-4)Gal(b1-4)Glc
# How it was run: as §1
# [37] = target: GalNAc(a1-3)GalNAc(b1-3)Gal(a1-4)Gal(b1-4)GlcNAc
# How it was run: as §1
# [38] = target: GalNAc(b1-3)Gal
# How it was run: as §1
# [39] = target: GalNAc(b1-3)Gal(a1-4)Gal(b1-4)GlcNAc
# How it was run: as §1
# [40] = target: GalNAc(b1-3)Gal(a1-4)Gal(b1-4)GlcNAc(b1-3)Gal(b1-4)Glc
# How it was run: as §1
# [41] = target: GalNAc(b1-3)Gal(a1-6)Gal(b1-4)Glc
# How it was run: as §1
# [42] = target: GalNAc(b1-3)GalNAc
# How it was run: as §1
# [43] = target: GalNAc(b1-3)GlcNAc
# How it was run: as §1
# [44] = target: GalNAc(b1-4)Gal(b1-4)Glc
# How it was run: as §1
# [45] = target: GalNAc(b1-4)GlcNAc
# How it was run: as §1
# [46] = target: GalNAc(b1-4)GlcNAc(b1-2)Man
# How it was run: as §1
# [47] = target: GalNAc(b1-4)GlcNAc(b1-2)Man(a1-3)[GalNAc(b1-4)GlcNAc(b1-2)Man(a1-6)]Man(b1-4)GlcNAc(b1-4)GlcNAc
# How it was run: as §1
# [48] = target: GalNAc(b1-4)GlcNAc(b1-3)GalNAc(b1-4)GlcNAc
# How it was run: as §1
# [49] = target: GalNAc(b1-4)GlcNAc6S
# How it was run: as §1
# [50] = target: GalNAc(b1-6)GalNAc
# How it was run: as §1
# [51] = target: GalNAc3S(b1-4)GlcNAc
# How it was run: as §1
# [52] = target: GalNAc3S(b1-4)GlcNAc3S
# How it was run: as §1
# [53] = target: GalNAc3S(b1-4)[Fuc(a1-3)]GlcNAc
# How it was run: as §1
# [54] = target: GalNAc4S6S(b1-4)GlcNAc
# How it was run: as §1
# [55] = target: GalNAc6S(b1-4)GlcNAc
# How it was run: as §1
# [56] = target: Glc(a1-4)Glc
# How it was run: as §1
# [57] = target: Glc(a1-4)Glc(a1-4)Glc(a1-4)Glc
# How it was run: as §1
# [58] = target: Glc(a1-6)Glc(a1-6)Glc
# How it was run: as §1
# [59] = target: Glc(a1-6)Glc(a1-6)Glc(a1-6)Glc
# How it was run: as §1
# [60] = target: Glc(b1-4)Glc
# How it was run: as §1
# [61] = target: Glc(b1-6)Glc
# How it was run: as §1
# [62] = target: GlcA(b1-3)Gal
# How it was run: as §1
# [63] = target: GlcA(b1-3)GlcNAc
# How it was run: as §1
# [64] = target: GlcA(b1-6)Gal
# How it was run: as §1
# [65] = target: GlcA3S(b1-3)Gal(b1-4)GlcNAc(b1-2)Man
# How it was run: as §1
# [66] = target: GlcA3S(b1-3)Gal(b1-4)GlcNAc(b1-3)Gal(b1-4)Glc
# How it was run: as §1
# [67] = target: GlcNAc(a1-3)Gal(b1-4)GlcNAc
# How it was run: as §1
# [68] = target: GlcNAc(a1-4)Gal(b1-3)GlcNAc
# How it was run: as §1
# [69] = target: GlcNAc(a1-4)Gal(b1-4)GalNAc
# How it was run: as §1
# [70] = target: GlcNAc(a1-4)Gal(b1-4)GlcNAc
# How it was run: as §1
# [71] = target: GlcNAc(a1-4)Gal(b1-4)GlcNAc(b1-3)Gal(b1-4)Glc
# How it was run: as §1
# [72] = target: GlcNAc(a1-4)Gal(b1-4)GlcNAc(b1-3)Gal(b1-4)GlcNAc
# How it was run: as §1
# [73] = target: GlcNAc(a1-4)Gal(b1-4)GlcNAc(b1-3)Gal(b1-4)GlcNAc(b1-3)Gal(b1-4)GlcNAc
# How it was run: as §1
# [74] = target: GlcNAc(a1-4)Gal(b1-4)GlcNAc(b1-3)Gal(b1-4)[Fuc(a1-3)]GlcNAc(b1-3)Gal(b1-4)[Fuc(a1-3)]GlcNAc
# How it was run: as §1
# [75] = target: GlcNAc(a1-6)Gal(b1-4)GlcNAc
# How it was run: as §1
binder,measurement,setting,value
B1,glycan array binding signal (z-score),[1],-0.192
same,glycan array binding signal (z-score),[2],-0.306
same,glycan array binding signal (z-score),[3],-0.418
same,glycan array binding signal (z-score),[4],-0.37
same,glycan array binding signal (z-score),[5],-0.5
same,glycan array binding signal (z-score),[6],-0.258
same,glycan array binding signal (z-score),[7],-0.034
same,glycan array binding signal (z-score),[8],2.15
same,glycan array binding signal (z-score),[9],-0.138
same,glycan array binding signal (z-score),[10],-0.242
same,glycan array binding signal (z-score),[11],-0.293
same,glycan array binding signal (z-score),[12],-0.263
same,glycan array binding signal (z-score),[13],-0.147
same,glycan array binding signal (z-score),[14],0.063
same,glycan array binding signal (z-score),[15],-0.091
same,glycan array binding signal (z-score),[16],0.507
same,glycan array binding signal (z-score),[17],0.292
same,glycan array binding signal (z-score),[18],-0.109
same,glycan array binding signal (z-score),[19],-0.293
same,glycan array binding signal (z-score),[20],-0.548
same,glycan array binding signal (z-score),[21],1.08
same,glycan array binding signal (z-score),[22],-0.16
same,glycan array binding signal (z-score),[23],-0.079
same,glycan array binding signal (z-score),[24],0.727
same,glycan array binding signal (z-score),[25],-0.432
same,glycan array binding signal (z-score),[26],0.157
same,glycan array binding signal (z-score),[27],-0.218
same,glycan array binding signal (z-score),[28],-0.197
same,glycan array binding signal (z-score),[29],1.2
same,glycan array binding signal (z-score),[30],0.119
same,glycan array binding signal (z-score),[31],0.622
same,glycan array binding signal (z-score),[32],0.85
same,glycan array binding signal (z-score),[33],2.84
same,glycan array binding signal (z-score),[34],2.65
same,glycan array binding signal (z-score),[35],0.527
same,glycan array binding signal (z-score),[36],0.028
same,glycan array binding signal (z-score),[37],-0.032
same,glycan array binding signal (z-score),[38],5.2
same,glycan array binding signal (z-score),[39],2.46
same,glycan array binding signal (z-score),[40],2.63
same,glycan array binding signal (z-score),[41],4.68
same,glycan array binding signal (z-score),[42],0.227
same,glycan array binding signal (z-score),[43],3.33
same,glycan array binding signal (z-score),[44],-0.401
same,glycan array binding signal (z-score),[45],1.82
same,glycan array binding signal (z-score),[46],2.72
same,glycan array binding signal (z-score),[47],0.004
same,glycan array binding signal (z-score),[48],1.85
same,glycan array binding signal (z-score),[49],1.69
same,glycan array binding signal (z-score),[50],-0.46
same,glycan array binding signal (z-score),[51],-0.453
same,glycan array binding signal (z-score),[52],-0.239
same,glycan array binding signal (z-score),[53],-0.609
same,glycan array binding signal (z-score),[54],-0.296
same,glycan array binding signal (z-score),[55],4.98
same,glycan array binding signal (z-score),[56],-0.37
same,glycan array binding signal (z-score),[57],-0.483
same,glycan array binding signal (z-score),[58],-0.401
same,glycan array binding signal (z-score),[59],-0.297
same,glycan array binding signal (z-score),[60],-0.243
same,glycan array binding signal (z-score),[61],0.231
same,glycan array binding signal (z-score),[62],-0.596
same,glycan array binding signal (z-score),[63],-0.33
same,glycan array binding signal (z-score),[64],-0.483
same,glycan array binding signal (z-score),[65],-0.635
same,glycan array binding signal (z-score),[66],-0.469
same,glycan array binding signal (z-score),[67],-0.231
same,glycan array binding signal (z-score),[68],-0.52
same,glycan array binding signal (z-score),[69],-0.313
same,glycan array binding signal (z-score),[70],-0.565
same,glycan array binding signal (z-score),[71],-0.307
same,glycan array binding signal (z-score),[72],-0.476
same,glycan array binding signal (z-score),[73],-0.523
same,glycan array binding signal (z-score),[74],-0.178
same,glycan array binding signal (z-score),[75],-0.374
